# Laboratory results taken from PubChem BioAssay (Tox21).
# Inconclusive results, whose numbers are uncertain, are shown with a selection of clear calls. A call without a number means that no potency is given here. For some assays here: Potencies beside an inconclusive call are fits to weak or partial responses and may not hold up. Activity calls are given as the source filed them. Unless noted, calls come from the whole dose curve; as a rule, active = well fitted curve in the direction sought with a large enough effect in the repeat runs; inconclusive = weak or mixed curves; inactive = no such curve, though single readings can be large; an effect the other way counts as inactive or inconclusive.
# Key:
# [1] = qHTS assay to identify small molecule agonists of the retinoic acid receptor (RAR) signaling pathway (AID 1159553); conditions: C3RL4 RARE luciferase reporter, agonist, 6 h; activation: at 73.3 µM (top of the series) unless noted; note: potency is the fitted concentration of half-maximal effect
# Procedure, shortened: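 C3RL4 RARE-luciferase cells were seeded at 1,000/well and grown overnight at 37 C, then exposed to compounds for 6 hr at 37 C, 5% CO2. Luciferase reagent was added and luminescence was read after 30 min at room temperature.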
# [2] = qHTS assay for small molecule agonists of the p53 signaling pathway (AID 651631; calls by dose curve; note: nearly all actives have a fitted effect of over 15% in size; note: potency is the fitted concentration of half-maximal effect); conditions: HCT-116 p53RE-bla reporter, beta-lactamase FRET ratio, 16 h; activation: at 73.3 µM (top of the series) unless noted
# Procedure, shortened: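 Quantitative high-throughput format: 4,000 p53RE-bla HCT-116 cells/well, 5 h pre-incubation, 16 h compound exposure at 37 °C, 2 h room-temperature substrate step, fluorescence intensity measured.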
# [3] = qHTS assay to identify small molecule antagonists of the peroxisome proliferator-activated receptor delta (PPARd) signaling pathway - cell viability counter screen (AID 743213); conditions: PPARd-bla HEK293H viability, CellTiter-Glo luminescence, 17 h; viability change, negative = cytotoxic: at 62 µM (top of the series) unless noted; note: nearly all actives have a fitted effect of over 50% in size; note: potency is the fitted concentration of half-maximal effect
# Procedure, shortened: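 HEK293H PPARd UAS-bla cells, 5 h pre-incubation, compound + L165041 300 nM final, 17 h 37 C; B/G FRET substrate 2 h RT; then CellTiter-Glo 30 min RT, luminescence.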
# [4] = qHTS assay to identify small molecule antagonists of the vitamin D receptor (VDR) signaling pathway - cell viability counter screen (AID 743225); conditions: VDR-bla HEK293T viability, CellTiter-Glo luminescence, 16 h; viability change, negative = cytotoxic: at 61 µM (top of the series) unless noted; note: nearly all actives have a fitted effect of over 50% in size; note: potency is the fitted concentration of half-maximal effect
# Procedure, shortened: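 Luminescent cell viability (CellTiter-Glo) in VDR-bla HEK 293T cells after 16 h compound exposure at 37C in the presence of 3 nM final 1-alpha,25-dihydroxy vitamin D3.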
# [5] = target: Estrogen receptor beta (Homo sapiens) (UniProt Q92731); experiment: qHTS assay to identify small molecule agonists of the estrogen receptor beta (ER-beta) signaling pathway (AID 1259377; active = well fitted activation curve with a large enough effect in the signal ratio in the repeat runs, not every such curve was filed as active; inconclusive = weak or mixed curves, or effect the other way; the % refers to the signal ratio; note: potency is the fitted concentration of half-maximal effect); conditions: ER-beta-UAS-bla HEK293T, beta-lactamase FRET ratio, 16 h; activation: at 92.4 µM (top of the series) unless noted
# Procedure, shortened: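 Screening used GripTite ER-beta-UAS-bla cells held in 2% charcoal-stripped FBS medium. After overnight (16 hr) compound incubation at 37C, beta-lactamase activity was detected with a FRET substrate by fluorescence.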
# [6] = qHTS assay to identify small molecule antagonists of the estrogen receptor alpha (ER-alpha) signaling pathway - cell viability counter screen (AID 743074; calls by dose curve;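 note: HEK293 cells carrying ER-alpha-UAS-bla reporter stimulated with 17beta-estradiol; nearly all actives have a fitted effect of over 45% in size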; note: potency is the fitted concentration of half-maximal effect)
# [7] = qHTS assay for identifying genotoxic compounds that show differential cytotoxicity against isogenic chicken DT40 cell lines with known DNA damage response pathways - Rad54/Ku70 mutant cell line (AID 743015); conditions: DT40 Rad54/Ku70 mutant viability, CellTiter-Glo, 40 h; activity change, negative = cytotoxicity: at 66.8 µM (top of the series) unless noted; note: nearly all actives have a fitted effect of over 60% in size
# [8] = qHTS assay to identify small molecule antagonists of the estrogen receptor alpha (ER-alpha) signaling pathway using the BG1 cell line - cell viability counter screen (AID 743081); conditions: BG1Luc4E2 viability, CellTiter-Fluor, 22 h; activity change, negative = cytotoxicity: at 70.3 µM (top of the series) unless noted;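 note: compound given together with 17beta-estradiol as the ER stimulus; nearly all actives have a fitted effect of over 45% in size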
# [9] = Caspase-3/7 induction in HepG2 cells by small molecules, qHTS cell viability counter screen (AID 1346981); note: nearly all actives have a fitted effect of over 30% in size; note: potency is the fitted concentration of half-maximal effect
# Procedure, shortened: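 Wild-type HepG2 cells, 2,000/well, settled 5 hr at 37 C, 5% CO2 before compound addition. Viability read by CellTiter-Fluor fluorescence, reagent added after 16 hr compound exposure, then 1 hr at 37C, in the same wells as the caspase read.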
# [10] = qHTS assay to identify small molecule agonists of the farnesoid-X-receptor (FXR) signaling pathway - cell viability counter screen (AID 743218); conditions: FXR-bla HEK293T viability, CellTiter-Glo luminescence, 16 h; viability change, negative = cytotoxic: at 62.6 µM (top of the series) unless noted; note: nearly all actives have a fitted effect of over 45% in size; note: potency is the fitted concentration of half-maximal effect
# Procedure, shortened: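 FXR-UAS-bla HEK 293T cells exposed to compounds for 16 h at 37C. Cytotoxicity read in the same wells by CellTiter-Glo luminescence after 30 min at room temperature, following the beta-lactamase FRET read.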
# [11] = target: Nuclear receptor subfamily 1 group I member 2 (Homo sapiens) (UniProt O75469); experiment: Human pregnane X receptor (PXR) small molecule agonists, qHTS assay (AID 1346982); note: nearly all actives have a fitted effect of over 35% in size; note: potency is the fitted concentration of half-maximal effect
# Procedure, shortened: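 PXR-Luc HepG2 reporter cells (CYP3A4-driven luciferase) in 5% charcoal-stripped FBS medium, plated 5 h before compound addition, then treated 24 h at 37C. Luciferase read by ONE-Glo luminescence after 30 min at room temperature.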
# [12] = qHTS assay to identify small molecule antagonists of the thyroid receptor (TR) signaling pathway (AID 743065); note: nearly all actives have a fitted effect of over 55% in size; note: potency is the fitted concentration of half-maximal effect
# Procedure, shortened: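 GH3.TRE-Luc rat pituitary cells (two TREs driving luciferase) were dosed with compound, then stimulated with 1 nM T3 (final) for 23.5 h at 37 C. ONE-Glo luminescence was the read-out, with CellTiter-Fluor fluorescence as the cytotoxicity counter-screen.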
# [13] = qHTS assay for small molecule activators of the heat shock response signaling pathway (AID 743210; active = well fitted activation curve with a large enough effect in the signal ratio in the repeat runs, with a control signal flat, not every such curve was filed as active; inconclusive = weak or mixed curves; the % refers to the signal ratio); conditions: HeLa HSE-bla reporter, beta-lactamase ratio, 5 h; activation: at 62.6 µM (top of the series) unless noted
# Procedure, shortened: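 HSE-bla HeLa cells (beta-lactamase reporter under heat shock response elements), plated overnight, then exposed to compounds 5 h at 37 C; LiveBLAzer B/G FRET substrate added, 2.5 h at room temperature, fluorescence intensity read.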
# [14] = Caspase-3/7 induction in CHO-K1 cells by small molecules, qHTS cell viability counter screen (AID 1346979); note: nearly all actives have a fitted effect of over 35% in size; note: potency is the fitted concentration of half-maximal effect
# Procedure, shortened: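 Multiplexed with Caspase-Glo 3/7 in CHO-K1 cells, this counter screen added CellTiter-Fluor after 16hr of compound exposure and recorded fluorescence 1hr later.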
# [15] = target: Vitamin D3 receptor (Homo sapiens) (UniProt P11473); experiment: qHTS assay to identify small molecule agonists of the vitamin D receptor (VDR) signaling pathway (AID 743222; calls by dose curve); conditions: HEK293T VDR-UAS-bla, beta-lactamase FRET ratio, 16 h; activation: at 63.5 µM (top of the series) unless noted
# Procedure, shortened: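 VDR-bla cells plated 4 h at 37 C, then exposed to compounds for 16 h at 37 C. Beta-lactamase reporter activity measured by fluorescence after 2 h room-temperature loading with LiveBLAzer B/G FRET substrate.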
# [16] = qHTS RealTime-Glo MT Cell Viability Assay in HEK293 cells - 24 hour (AID 1224886); note: nearly all actives have a fitted effect of over 50% in size; note: potency is the fitted concentration of half-maximal effect; for activity change, negative = cytotoxicity: top concentration of the series differs between compounds
# Procedure, shortened: (§1)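 Nonlytic real-time viability readout: viable cells convert prosubstrate to NanoLuc substrate, giving luminescence proportional to live cell number. HEK293, 600 cells/well, compound added after 5 h, continuous culture at 37 C.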
# [17] = qHTS assay to identify small molecule agonists of H2AX - cell viability counter screen (AID 1224847; calls by dose curve; note: top concentration of the series differs between compounds; nearly all actives have a fitted effect of over 30% in size)
# Procedure, shortened: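 Read-out: CellTiter-Glo luminescence, 30 min RT. Cells: wild-type CHO-K1, 1000/well, 10% FBS, plated overnight at 37C. Treatment: 15 concentrations, 3 hr, 37C, 0.76% DMSO.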
# [18] = qHTS RealTime-Glo MT Cell Viability Assay in HEK293 cells - 16 hour (AID 1224872); note: nearly all actives have a fitted effect of over 50% in size; note: potency is the fitted concentration of half-maximal effect; for activity change, negative = cytotoxicity: top concentration of the series differs between compounds
# Procedure, shortened: as §1
# [19] = qHTS RealTime-Glo MT Cell Viability Assay in HEK293 cells - 8 hour (AID 1224887)
# Procedure, shortened: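 600 cells/well were plated with the nonlytic NanoLuc/prosubstrate reagent, pre-incubated 5 h, then given 23 nL of compound in DMSO. Incubation at 37 C for 40 h, with luminescence from viable-cell-reduced substrate read repeatedly from 0 h.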
# [20] = qHTS assay to identify small molecule agonists of the estrogen receptor beta (ER-beta) signaling pathway - cell viability counter screen (AID 1259380); note: nearly all actives have a fitted effect of over 30% in size; note: potency is the fitted concentration of half-maximal effect
# Procedure, shortened: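 ER-beta-UAS-bla HEK293T cells in medium with 2% charcoal-stripped FBS, pre-incubated 6 hr, then treated 16 hr at 37C. Cytotoxicity read in the same wells by CellTiter-Glo luminescence after 30 min at room temperature.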
# Tags give direction and shape of the fitted curve or compound fluorescence and quenching.
# Chain of UniProt O75469 (O75469 whole entry, looked up): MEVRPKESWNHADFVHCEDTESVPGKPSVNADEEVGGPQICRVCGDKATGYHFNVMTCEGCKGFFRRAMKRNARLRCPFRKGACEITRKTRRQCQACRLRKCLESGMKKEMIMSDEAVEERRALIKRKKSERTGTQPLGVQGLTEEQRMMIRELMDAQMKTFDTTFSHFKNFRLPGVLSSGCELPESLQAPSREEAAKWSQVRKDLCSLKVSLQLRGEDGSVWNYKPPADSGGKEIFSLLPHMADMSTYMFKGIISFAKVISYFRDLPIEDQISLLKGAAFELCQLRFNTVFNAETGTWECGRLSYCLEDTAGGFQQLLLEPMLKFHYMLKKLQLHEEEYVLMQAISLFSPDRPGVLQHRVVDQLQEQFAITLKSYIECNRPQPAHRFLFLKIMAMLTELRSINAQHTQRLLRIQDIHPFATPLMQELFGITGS
# Chain of UniProt Q92731 (Q92731 whole entry, looked up): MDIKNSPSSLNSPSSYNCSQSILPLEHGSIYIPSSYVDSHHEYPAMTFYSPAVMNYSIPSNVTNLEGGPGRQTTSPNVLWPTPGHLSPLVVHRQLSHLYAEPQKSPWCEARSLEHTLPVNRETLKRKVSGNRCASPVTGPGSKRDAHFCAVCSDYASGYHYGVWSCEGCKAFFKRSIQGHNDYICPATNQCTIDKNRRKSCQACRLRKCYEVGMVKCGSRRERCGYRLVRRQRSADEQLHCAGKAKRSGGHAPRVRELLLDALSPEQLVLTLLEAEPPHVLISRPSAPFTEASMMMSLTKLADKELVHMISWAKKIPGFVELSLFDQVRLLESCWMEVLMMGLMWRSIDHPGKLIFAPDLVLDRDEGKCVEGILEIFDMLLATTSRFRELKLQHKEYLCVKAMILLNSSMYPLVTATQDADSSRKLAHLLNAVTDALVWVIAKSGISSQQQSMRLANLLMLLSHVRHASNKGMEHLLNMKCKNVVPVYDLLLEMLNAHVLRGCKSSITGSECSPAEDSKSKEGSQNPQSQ
# Chain of UniProt P11473 (P11473 whole entry, looked up): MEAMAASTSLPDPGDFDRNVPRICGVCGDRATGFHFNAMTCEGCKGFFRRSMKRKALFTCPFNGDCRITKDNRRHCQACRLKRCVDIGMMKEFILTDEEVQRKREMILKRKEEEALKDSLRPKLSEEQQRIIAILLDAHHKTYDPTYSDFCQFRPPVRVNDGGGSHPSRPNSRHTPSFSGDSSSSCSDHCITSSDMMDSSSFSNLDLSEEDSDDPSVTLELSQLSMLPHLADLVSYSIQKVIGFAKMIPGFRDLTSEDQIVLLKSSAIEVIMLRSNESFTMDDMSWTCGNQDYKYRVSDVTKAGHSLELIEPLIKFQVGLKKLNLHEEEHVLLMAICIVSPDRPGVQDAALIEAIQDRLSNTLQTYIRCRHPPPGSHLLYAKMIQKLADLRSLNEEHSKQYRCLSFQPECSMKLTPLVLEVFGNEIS
smiles,measurement,setting,value
CC(=O)OCc1ccccc1,activation,[1],inconclusive: 0.94% [phenotype inactive] [at 94.8 µM]
CCC[Si](OC)(OC)OC,Potency,[2],"inconclusive: 243 nM [falling, single point]"
same,Potency,[3],"inconclusive: 13.8 µM [cytotoxic, partial curve, poor fit]"
same,Potency,[4],"inconclusive: 12.3 µM [cytotoxic, single point]"
C=C(C)C(=O)OCCN(C)C,activation,[2],inconclusive: 4.42% [at 95.1 µM]
same,Potency,[4],inactive
CCCOC(OCCC)OCCC,Potency,[5],inactive
CC(C)(O)C(=O)c1ccc(OCCO)cc1,Potency,[6],"inconclusive: 21.9 µM [rising, single point]"
same,Potency,[4],inactive
C/C=C/CO,activation,[5],inconclusive: 9.34%
C=C(C)C(=O)OCCCCCCCCCCCCCCCCCC,Potency,[7],inactive
same,Potency,[6],"inconclusive: 12.6 µM [cytotoxic, single point]"
same,Potency,[8],inactive
same,"activity change, negative = cytotoxicity",[9],inactive: -0.0917% [at 19 µM]
C=CC(=O)NCOCC(C)C,activation,[2],inconclusive: 6.09%
same,Potency,[5],inactive
CC(O)C(C)O (centres undefined),Potency,[6],inactive
same,"viability change, negative = cytotoxic",[3],inconclusive: 3.7% [cytotoxic] [at 80.4 µM]
same,Potency,[10],"inconclusive: 6210 nM [rising, full curve, poor fit]"
same,Potency,[11],inactive
O=C(O)/C=C/c1cnc[nH]1,Potency,[12],inactive
same,Potency,[13],inactive
O=c1c2ccccc2nnn1CCl,Potency,[7],inactive
same,Potency,[8],inactive
same,Potency,[1],"inconclusive: 0.0014 µM [activator, full curve, poor fit]"
same,Potency,[9],inactive
CC/C=C\CCOC(=O)CC,Potency,[10],"inconclusive: 692 nM [rising, partial curve, poor fit]"
C[C@H]1C[C@H]2[C@@H]3CCC4=CC(=O)C=C[C@]4(C)[C@@]3(F)[C@@H](O)C[C@]2(C)[C@@]1(O)C(=O)COP(=O)(O)O,Potency,[8],inactive
same,Potency,[14],inactive
same,Potency,[11],"inconclusive: 44.2 µM [activator, partial curve, poor fit]"
CCCCC(CC)COC(=O)c1ccc(C(=O)OCC(CC)CCCC)cc1 (centres undefined),Potency,[10],inactive
CCOC(=O)OCC,Potency,[13],inactive
same,Potency,[4],inactive
same,Potency,[5],inactive
same,Potency,[14],inactive
C1=Cc2ccccc2C1,Potency,[12],inactive
same,Potency,[15],inactive
same,Potency,[4],inactive
same,Potency,[16],inactive
same,Potency,[11],inactive
CCCCCCCCCCCCS(=O)(=O)Cl,Potency,[5],inconclusive: 14.6 µM
same,"activity change, negative = cytotoxicity",[9],inactive: 3.84% [at 19 µM]
CCCCNc1ccccc1,Potency,[8],inactive
same,activation,[5],inconclusive: 11.2%
same,Potency,[11],"inconclusive: 68.6 µM [activator, single point]"
CCC1C(=O)OCC1Cc1cncn1C (centres undefined),Potency,[13],inactive
same,Potency,[14],"inconclusive: 33.5 µM [rising, partial curve, poor fit]"
COc1ccc2nc(SCc3ncc(C)c(OC)c3C)[nH]c2c1,Potency,[1],"inconclusive: 33.5 µM [activator, partial curve, poor fit]"
same,Potency,[17],inactive
same,Potency,[18],"inconclusive: 21.3 µM [cytotoxic, partial curve, poor fit]"
same,Potency,[16],"inconclusive: 19 µM [cytotoxic, partial curve]"
same,Potency,[19],"inconclusive: 21.3 µM [cytotoxic, partial curve]"
same,Potency,[5],"inconclusive: 11.9 µM [rising, full curve]"
same,Potency,[11],active: 23.7 µM
CCCCCCCCC(=O)OCC,Potency,[12],"inconclusive: 27.3 µM [inhibitor, single point]"
same,Potency,[9],"inconclusive: 24.3 µM [cytotoxic, partial curve, poor fit]"
CCCC1CCCC(=O)O1 (centres undefined),Potency,[5],inactive
C[Si](C)=O,Potency,[2],"inconclusive: 380 nM [falling, single point]"
CCOC(=O)C(=O)CCCCCCl,Potency,[15],inactive
CCc1occc(=O)c1O,Potency,[3],"inconclusive: 3.89 µM [cytotoxic, partial curve, poor fit]"
same,Potency,[10],"inconclusive: 1.2 nM [rising, full curve, poor fit]"
same,Potency,[1],inactive
same,Potency,[16],inactive
same,Potency,[14],inactive
same,Potency,[9],inactive
O=S(=O)(O)c1cc(O)c2ccc(Nc3ccccc3)cc2c1,Potency,[1],"inconclusive: 77 µM [activator, partial curve, poor fit]"
same,Potency,[18],inactive
same,Potency,[20],"inconclusive: 68.6 µM [cytotoxic, single point]"
same,Potency,[14],inconclusive: 48.6 µM [cytotoxic]
same,Potency,[9],"inconclusive: 61.1 µM [cytotoxic, partial curve]"
CCOC(=O)C(=O)OCC,Potency,[3],inactive
same,Potency,[1],inactive
COc1ccc(/C(C)=C/C(=O)O)c(OC)c1,Potency,[20],inactive
Cc1cc(C)n(CO)n1,Potency,[3],inactive
